Our source for the binding signal values is publication PMC9911399, “Two distinct binding modes provide the RNA-binding protein RbFox with extraordinary sequence specificity”.

Numbering of substitutions follows the chain as printed; changes in the protein carry UniProt numbers. The list shows a part of the results.

T1: RBFOX1 RRM (Homo sapiens, UniProt Q9NWB1 109-208)
T1 sequence: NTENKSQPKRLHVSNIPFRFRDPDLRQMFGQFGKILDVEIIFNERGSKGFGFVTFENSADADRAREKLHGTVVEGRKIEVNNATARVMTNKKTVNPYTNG

B1: UCUAAAU (DNA:RNA)
RNA: GGGAGACCGGAAUUCAGAUUGUCCUCUAAAUUUAAAUCCCGUCGUAGCCACCA
DNA 1: CAATCTGAATTCCGGTCTCCC
DNA 2: TGGTGGCTACGACGGGATT
B2: CGACAAU (DNA:RNA)
RNA: B1 RNA with U25C, C26G, U27A, A28C
DNA 1: CAATCTGAATTCCGGTCTCCC
DNA 2: TGGTGGCTACGACGGGATT
B3: AGGGAUA (DNA:RNA)
RNA: B1 RNA with U25A, C26G, U27G, A28G, A30U, U31A
DNA 1: CAATCTGAATTCCGGTCTCCC
DNA 2: TGGTGGCTACGACGGGATT
B4: CGAUUUG (DNA:RNA)
RNA: GGGAGACCGGAAUUCAGAUUGUCCCGAUUUGUUAAAUCCCGUCGUAGCCACCA
DNA 1: CAATCTGAATTCCGGTCTCCC
DNA 2: TGGTGGCTACGACGGGATT
B5: GCAAUUG (DNA:RNA)
RNA: B4 RNA with C25G, G26C, U28A
DNA 1: CAATCTGAATTCCGGTCTCCC
DNA 2: TGGTGGCTACGACGGGATT
B6: AAAGUUC (DNA:RNA)
RNA: B4 RNA with C25A, G26A, U28G, G31C
DNA 1: CAATCTGAATTCCGGTCTCCC
DNA 2: TGGTGGCTACGACGGGATT
B7: UGGUUAG (DNA:RNA)
RNA: B4 RNA with C25U, A27G, U30A
DNA 1: CAATCTGAATTCCGGTCTCCC
DNA 2: TGGTGGCTACGACGGGATT
B8: AGGAUUA (DNA:RNA)
RNA: B4 RNA with C25A, A27G, U28A, G31A
DNA 1: CAATCTGAATTCCGGTCTCCC
DNA 2: TGGTGGCTACGACGGGATT
B9: GCUGUUG (DNA:RNA)
RNA: B4 RNA with C25G, G26C, A27U, U28G
DNA 1: CAATCTGAATTCCGGTCTCCC
DNA 2: TGGTGGCTACGACGGGATT
B10: CCAUGAC (DNA:RNA)
RNA: B4 RNA with G26C, U29G, U30A, G31C
DNA 1: CAATCTGAATTCCGGTCTCCC
DNA 2: TGGTGGCTACGACGGGATT
B11: ACCCGUC (DNA:RNA)
RNA: B4 RNA with C25A, G26C, A27C, U28C, U29G, G31C
DNA 1: CAATCTGAATTCCGGTCTCCC
DNA 2: TGGTGGCTACGACGGGATT
B12: CGGACAA (DNA:RNA)
RNA: B4 RNA with A27G, U28A, U29C, U30A, G31A
DNA 1: CAATCTGAATTCCGGTCTCCC
DNA 2: TGGTGGCTACGACGGGATT
B13: UGGGCUG (DNA:RNA)
RNA: B4 RNA with C25U, A27G, U28G, U29C
DNA 1: CAATCTGAATTCCGGTCTCCC
DNA 2: TGGTGGCTACGACGGGATT
B14: UACUGGU (DNA:RNA)
RNA: B1 RNA with C26A, U27C, A28U, A29G, A30G
DNA 1: CAATCTGAATTCCGGTCTCCC
DNA 2: TGGTGGCTACGACGGGATT
B15: GAUGAAG (DNA:RNA)
RNA: B1 RNA with U25G, C26A, A28G, U31G
DNA 1: CAATCTGAATTCCGGTCTCCC
DNA 2: TGGTGGCTACGACGGGATT
B16: CCCUACG (DNA:RNA)
RNA: B4 RNA with G26C, A27C, U29A, U30C
DNA 1: CAATCTGAATTCCGGTCTCCC
DNA 2: TGGTGGCTACGACGGGATT
B17: GGCAACG (DNA:RNA)
RNA: B4 RNA with C25G, A27C, U28A, U29A, U30C
DNA 1: CAATCTGAATTCCGGTCTCCC
DNA 2: TGGTGGCTACGACGGGATT
B18: GUAUACU (DNA:RNA)
RNA: B4 RNA with C25G, G26U, U29A, U30C, G31U
DNA 1: CAATCTGAATTCCGGTCTCCC
DNA 2: TGGTGGCTACGACGGGATT
B19: AAAUUUC (DNA:RNA)
RNA: B4 RNA with C25A, G26A, G31C
DNA 1: CAATCTGAATTCCGGTCTCCC
DNA 2: TGGTGGCTACGACGGGATT
B20: GCGCGUU (DNA:RNA)
RNA: B1 RNA with U25G, U27G, A28C, A29G, A30U
DNA 1: CAATCTGAATTCCGGTCTCCC
DNA 2: TGGTGGCTACGACGGGATT

The assay has as its target T1, RBFOX1 RRM. In words: EMSA; HiTS-Eq, 1 nM pool, 10 min; buffer printed only for the single-RNA assays: 10 mM Tris pH 7.5, 150 mM NaCl, 3.4 mM EDTA, 0.001% NP-40, 30 C. The settings on record: tags: His6 N-terminal (pET28a); label: 5' 32P. Put shortly: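 Purified wild-type or mutant RbFox RRM at increasing concentrations was equilibrated with 1 nM of 5′-radiolabelled RNA carrying 7 randomized nucleotides for 10 min in 50 µL. Unbound RNA was separated by 8% native PAGE and sequenced. Relative association constants came from read-count changes of each RNA species compared with the control reaction, normalised to the cognate motif.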
A general note: A gel shift assay detects complexes by their altered migration in electrophoresis.
Turning to B1, the binding signal is 0.0034 KA relative to UGCAUGU.

Turning to B2, the binding signal was 0.00242 KA relative to UGCAUGU.

B3: the binding signal was 0.0168 KA relative to UGCAUGU.

Take B4: the binding signal is 0.0154 KA relative to UGCAUGU.

For the molecule B5, the binding signal is 0.0136 KA relative to UGCAUGU.

Regarding B6, the binding signal is 0.0059 KA relative to UGCAUGU.

As to B7, the binding signal is 0.0202 KA relative to UGCAUGU.

With B8, the binding signal is 0.0123 KA relative to UGCAUGU.

Consider B9, for which the binding signal is 0.028 KA relative to UGCAUGU.

In the case of B10, the binding signal was 0.0094 KA relative to UGCAUGU.

For B11, the binding signal is 0.00333 KA relative to UGCAUGU.

B12: the binding signal was 0.0118 KA relative to UGCAUGU.

For the molecule B13, the binding signal is 0.039 KA relative to UGCAUGU.

Regarding B14, the binding signal is 0.0165 KA relative to UGCAUGU.

In the case of B15, the binding signal is 0.0183 KA relative to UGCAUGU.

Turning to B16, the binding signal was 0.00111 KA relative to UGCAUGU.

On to B17, for which the binding signal was 0.0109 KA relative to UGCAUGU.

In the case of B18, the binding signal was 0.00489 KA relative to UGCAUGU.

With B19, the binding signal was 0.00597 KA relative to UGCAUGU.

As to B20, the binding signal was 0.0168 KA relative to UGCAUGU.
